Switch fluorescence ratio data for 120 sequences are collected here from the supplement of paper PMC10126150.

Values marked as one replicate rest on one cluster of the flow cell; about a third of the high ones do not repeat.
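Also: ATP exposure 15 min at 22 °C before imaging.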

The data set deals with ATP. As to the kind of experiment: switch fluorescence ratio, 500 uM ATP over buffer (Cy3 cluster intensity, sum of 5 cycles each) (fold (ratio)); higher = stronger signal-on switching upon ATP binding; sequences stand for … in TCGTCGGCAGCGTCAGATGTGTATAAGAGACAGTTTTTTTTTTTTTTTTTTTTTTTTT…TC. The settings on record: aptamer strand: ATP DNA aptamer (quencher-CACCTGGGGGAGTATTGCGGAGGAAGG + anchor), 100 nM annealed; ATP concentration: 500 uM; one replicate. Put shortly: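 Between each of five buffer/ATP cycles, the flow-cell was stripped with NaOH and re-annealed. Each cycle imaged Cy3-labelled switching-strand clusters, annealed to 100 nM quencher-labelled ATP aptamer on a modified Illumina MiSeq flow-cell, first in selection buffer and then after 15 min with 500 uM ATP at 22 °C. The fluorescence ratio is summed target-cycle over summed buffer-cycle Cy3 intensity per cluster, averaged per switch-domain sequence, with clusters outside 100-1000 RFU excluded.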
GGCGACGGCT: the switch fluorescence ratio came to 1. As for AAACGAAAAT, the figure is 0.948; as for ATTCTCAGG, 1.03; as for GCACGTGCCA, 0.98. For the sequence TCAAAATATC, the switch fluorescence ratio came to 1.01.

For the sequence TCGTCCTTT, the switch fluorescence ratio came out at 0.96. As for AGTATGTAA, the figure is 1; as for CCATGTGGTC, 0.935. With AACGTTTAAC, the switch fluorescence ratio is 1.17. As for GTTAACTTGC, the figure is 1.08; as for AGTTGAAGCC, 1.03.

On to GCCTACAGGA, for which the switch fluorescence ratio worked out at 1.03. As to TTTCGCGGG, the switch fluorescence ratio came to 1.15.

For GTGACGACAA, the switch fluorescence ratio stood at 1.2.

AATGAGTACT: the switch fluorescence ratio was found to be 1.06. To CGCCTAACCA belongs 0.992; to CAGTCGAATG, 0.989. For the sequence GAGTTAACGT, the switch fluorescence ratio worked out at 0.986. To GCTTTCTGTT belongs 0.963; to CCCGGACTGC, 1.83. As to AAAAATTAA, the switch fluorescence ratio is 0.994. As for CATTTCAGTT, the figure is 0.993. As to CTGTGGTGAG, the switch fluorescence ratio came out at 0.979. As for CGCTGATTAC, the figure is 3.51; as for GAAACTCGGT, 0.992; as for CAACAGAGAT, 1.02.

AATTTTGGT: the switch fluorescence ratio is 0.997.

On to TCTACACCCG, for which the switch fluorescence ratio amounted to 1.09. Turning to GCGCGACTGA, the switch fluorescence ratio is 1.06. As to GGTAGGGCCG, the switch fluorescence ratio is 1.32.

On to CACAATTTTC, for which the switch fluorescence ratio is 1.06. As for AAGGATCAG, the switch fluorescence ratio was 0.983.

Regarding GATGACGTGT, the switch fluorescence ratio was 1. Regarding TGTGAGCCAG, the switch fluorescence ratio was 0.968.

Take GGTAAACATT: the switch fluorescence ratio came to 1.05. As to TCCACTACCT, the switch fluorescence ratio worked out at 1.34. As for CTTAGAGATC, the figure is 0.975. To GTGTGGTGTC belongs 1.06; to CCATGCTTAT, 1.01. To CTATGGGAGG belongs 1.04. Consider CTATTACGAG, for which the switch fluorescence ratio turned out to be 1.01. To GCTCGCAGTG belongs 1.04; to TGTGAATTTG, 0.989.

As to GTTTTGAATA, the switch fluorescence ratio amounted to 0.995.

For GCTTGCGCT, the switch fluorescence ratio was 1. As for ATCAGACAGC, the figure is 1.

For the sequence GGGTTTAGTT, the switch fluorescence ratio was 1.02. As for TGGCCATTTG, the figure is 0.99; as for TTATCTGTT, 1.05; as for CTTACAGTCA, 1.01. To GAGGCAAGTA belongs 1.23; to ATAGGCAAAA, 1.02; to AATTCGTATT, 0.964. To ATTTAAGCCG belongs 1.07; to ATCACTGCC, 1.18; to TGGATATGAG, 0.993. For TAACTGTTCT, the switch fluorescence ratio came to 1.06. With TGCTAGACGA, the switch fluorescence ratio stood at 1.1. As for ATCCAAATGA, the figure is 1.02; as for CAAATACATC, 0.989; as for TACAGTTTTG, 0.982. As for GCTAGATTGC, the figure is 0.997; as for CGTTCTGGAC, 1.05; as for TCTTACTGCG, 1.05. Take GAACTAGAGG: the switch fluorescence ratio turned out to be 0.993. Turning to ATCGCAGATG, the switch fluorescence ratio is 0.996. On to CACTCAGTGG, for which the switch fluorescence ratio worked out at 1.04. To CTGCTTGAGT belongs 1.01.

Turning to GCTGCACTGA, the switch fluorescence ratio came out at 1.06. As for GCAGTAATAA, the switch fluorescence ratio worked out at 3.19. With CCGTGATGCA, the switch fluorescence ratio is 1.05. To CCTTAAGTTG belongs 1.04; to TTTACGAGAG, 1.01; to CGCTACTTGG, 1.03. For TGTATGGGGC, the switch fluorescence ratio amounted to 0.943. To GCCCCCAAGG belongs 1; to TTCTTTCAAC, 1.03; to CGATTCATTA, 0.979. With GCTTGAGAAC, the switch fluorescence ratio came out at 0.979. In the case of AAAAGTCATT, the switch fluorescence ratio amounted to 0.957.

With TAGGGGTCAT, the switch fluorescence ratio came out at 0.982. Take CGATAAGGAA: the switch fluorescence ratio came out at 1.07.

With ATGAGATCCT, the switch fluorescence ratio was found to be 1.05. To GAGGGTGGTT belongs 0.96; to ATCTGGTGGC, 0.995; to GGGAAGGCAG, 0.988. On to ATAATCCATG, for which the switch fluorescence ratio came to 1.02. As to TATGCTCTTA, the switch fluorescence ratio was found to be 0.969. To CTGAAGCCTC belongs 3.24; to GGGATCACGA, 1.03. Regarding CATATTGTTT, the switch fluorescence ratio was 0.992. To CACGGGTTTC belongs 1.01. GTTTGGACTG: the switch fluorescence ratio is 0.97. Regarding TTTTCACCCA, the switch fluorescence ratio is 1.05.

For GCTAGGGGCA, the switch fluorescence ratio is 1.08.

Take CGATGTCTCG: the switch fluorescence ratio was 0.98. Regarding TTCATTACCA, the switch fluorescence ratio was determined as 0.998.

Turning to GGCTGTTGAC, the switch fluorescence ratio was found to be 0.993. For TCGGGTCCCT, the switch fluorescence ratio amounted to 0.991.

Turning to GAGAGAGTAA, the switch fluorescence ratio turned out to be 1.01. With CTAATACTTC, the switch fluorescence ratio is 1.24.

Take CTGATGGTAT: the switch fluorescence ratio amounted to 1.03. To CGGTAATGAA belongs 1.

Consider GTAGTTCGAA, for which the switch fluorescence ratio stood at 0.997. To GCTGTGGCCG belongs 1.01; to GAAAGAAGTG, 1.03; to TAATCGTTGT, 0.962.

GCAATCGGCT: the switch fluorescence ratio is 0.92. To TTACTTCAAC belongs 1.06. As for TGGATGTCTA, the figure is 0.991; as for CCTTAAGGAC, 1.07. As for ATCGCGCAGT, the figure is 1.09; as for CGGTAGTGCC, 1.03; as for TGACGAAATT, 4.04. On to CAATCCAGGT, for which the switch fluorescence ratio was determined as 1.34. On to CTTTTTTGCA, for which the switch fluorescence ratio stood at 0.965.

Consider TGTGAGCGTC, for which the switch fluorescence ratio was determined as 0.974. To CATTCGAGGC belongs 1.06. To GCTAGATTAT belongs 0.987; to CTCTTTAAGC, 1.02.
